# From PubChem BioAssay AID686978 (National Center for Advancing Translational Sciences (NCATS), 2013)
# Screen size: about 420,000 compounds; about 64,000 (15%) were called active. This list was built around the results that the source calls inconclusive (neither active nor inactive); the mix of calls is not that of the screen. Calls follow the shape of the dose curve; as a rule, active = well fitted inhibition curve with a large enough effect; inconclusive = small, poorly fitted or top-dose-only effect; inactive = flat fitted curve, though single readings scatter. Potencies of inconclusive entries are left out as doubtful fits.
# Experiment: qHTS for Inhibitors of human tyrosyl-DNA phosphodiesterase 1 (TDP1): qHTS in cells in absence of CPT; also: nearly all actives have a fitted effect of over 55% in size
# Settings: DT40 Tdp1-/- hTDP1 cells, no CPT, ATP luminescence, 48 h; activity change, negative = growth inhibition: at 46.2 µM (top of the series)
# How it was run: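 Compound effects on proliferation are scored in DT40 Tdp1-/-;hTDP1 cells in the absence of CPT. ATP levels (CellTiter-Glo luminescence) are recorded after a ≥48 hr, 37 °C incubation.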
# % is scaled to controls: 0 for no effect and ±100 for the full control effect; potency is read from the fitted curve at half-maximal effect; tags tell the direction and shape of the fitted curve.
SMILES,Potency,"activity change, negative = growth inhibition"
CC1CN(S(=O)(=O)c2cccc(C(=O)OCC(=O)Nc3ccc4c(c3)OCO4)c2)CC(C)O1 (configuration not stated),"inconclusive [inhibitor, single point]",–
Cc1ccc(S(=O)(=O)N2CCN(C(=O)COC(=O)COc3ccc(Cl)c(C)c3)CC2)c(C)c1,"inconclusive [inhibitor, full curve]",–
CCOc1ccccc1N(CC(=O)N1CCCCCC1)S(=O)(=O)c1ccc(C)cc1,"inconclusive [inhibitor, single point]",–
CC(=O)N1N=C(c2ccc(NS(=O)(=O)c3ccccc3)cc2)CC1c1ccco1 (configuration not stated),active: 2.31 µM,–
COc1cc(OC)c(NC(=O)c2nn(-c3ccc(C)cc3)c(=O)c3c2c2ccccc2n3C)cc1Cl,–,inactive: -0.701%
CCOC(=O)N1CCC(NC(=O)c2ccc3c(c2)N(Cc2ccc(F)cc2)CCS3)CC1,active: 23.1 µM,–
CC(=O)N1CCC2(CCCN(Cc3nccs3)C2)CC1,–,inactive: -8.75%
COc1ccc(-c2cc3n(n2)CCc2nc4ccccc4n2-3)cc1,"inconclusive [inhibitor, single point]",–
C=CCOc1c(Cl)cc(CNCCC)cc1Cl,"inconclusive [inhibitor, single point]",–
C[C@H](CO)N1C[C@H](C)[C@@H](CN(C)Cc2ccc(Cl)c(Cl)c2)Oc2c(NS(=O)(=O)c3cn(C)cn3)cccc2C1=O,"inconclusive [inhibitor, single point]",–
O=C(COc1cc(Cl)c(Cl)cc1Cl)Nc1cccc(O)c1,"inconclusive [inhibitor, partial curve]",–
COCCCNCCCCOc1cccc(Br)c1,"inconclusive [inhibitor, single point]",–
CCn1cc(CN2CCC(C(=O)Nc3ccc(Oc4ccccc4)nc3)CC2)cn1,active: 20.6 µM,–
CSc1ccc(Cn2c(C)c(C(=O)NCc3ccc(C(C)C)cc3)sc2=O)cc1,"inconclusive [inhibitor, single point]",–
O=C(NCc1ccccc1Cl)c1ccc(Cn2c(SCc3ccccc3)nc3cccnc32)cc1,"inconclusive [inhibitor, single point]",–
O=C(CC(c1ccccc1)c1ccccc1)NCCOCc1ccccc1,"inconclusive [inhibitor, single point]",–
CCOC(=O)C1CCN(C(=O)c2ccc(NC(=O)c3nsc4ccccc34)cc2)CC1,"inconclusive [inhibitor, single point]",–
COc1ccc(CCNC(=O)c2cc3c(=O)n4ccccc4nc3n(C3CCCCC3)c2=N)cc1OC,"inconclusive [inhibitor, single point]",–
CCC1CCCCN1c1nc(-c2cccc(OC)c2O)nc2ccccc12 (configuration not stated),"inconclusive [inhibitor, single point]",–
CCOc1ccc(C2c3c(oc4ccc(C)cc4c3=O)C(=O)N2CCCN(C)C)cc1 (configuration not stated),–,inactive: -6.4%
CSc1ccc(CCNC(=O)C(C)n2nc(C)c3sc4ccccc4c3c2=O)cc1 (configuration not stated),"inconclusive [inhibitor, partial curve]",–
COc1ccc(/C=N/NC(=O)CC(=O)N/N=C/c2ccc(OC)cc2)cc1,"inconclusive [inhibitor, single point]",–
Cc1cc(CC(=O)O)c2oc(-c3ccoc3)cc(=O)c2c1,–,inactive: -0.364%
COc1ccc(Cn2c(=O)c3[nH]cnc3n(-c3ccccc3C)c2=O)cc1,active: 5.17 µM,–

SMILES,Potency,"activity change, negative = growth inhibition"
CC(C)C[C@@H](CSc1ccccc1)N1CCN(CC(C)C)CCC1=O,active: 14.1 µM,–
COc1ccc(CNCC(O)COc2ccc(C(C)(C)c3ccccc3)cc2)cc1 (configuration not stated),"inconclusive [inhibitor, single point]",–
Cc1ccc(OCC(=O)Nc2ccc(NC(=O)c3cccs3)cc2)c(C)c1,–,inactive: -29.3%
c1cncc(Oc2cccc(Oc3cccnc3)c2)c1,"inconclusive [inhibitor, partial curve, poor fit]",–
O=C1N/C(=N\N=C\c2cccs2)SC1Cc1ccc(Cl)cc1 (configuration not stated),"inconclusive [inhibitor, partial curve, poor fit]",–
Cc1cc(NC(=O)Cc2cn3ccsc3n2)n(-c2ccccc2)n1,–,inactive: -4.09%
CC(=O)c1ccc2c(c1)N(Cc1ccc3ccccc3c1)C(=O)C(C)S2 (configuration not stated),active: 5.17 µM,–
O=c1c(-c2ccc(Cl)cc2)nc2cnc(N3CCOCC3)nc2n1C[C@H]1CCCO1,–,inactive: 10.5%
O=C(NC1CCCCC1)C(c1ccccc1F)N(Cc1ccco1)C(=O)c1ccccn1 (configuration not stated),"inconclusive [inhibitor, single point]",–
COC(=O)c1ccc2nc(Nc3nc4c(F)cc(F)cc4s3)sc2c1,active: 16.4 µM,–
COc1ccc2c(c1)Cc1sc(NC(=O)c3ccco3)nc1-2,"inconclusive [inhibitor, single point]",–
Cc1ccc(NC(=O)c2ccc(CNS(=O)(=O)c3ccc4c(c3)C(C)(C)C(=O)N4C)cc2)cc1C,active: 11.6 µM,–
CC(=O)N1c2ccc(S(=O)(=O)NCC3CCC(C(=O)Nc4ccc(C)c(C)c4)CC3)cc2CC1C (configuration not stated),active: 23.1 µM,–
CCN(CC(=O)N1CCN(Cc2ccccc2)CC1)S(=O)(=O)c1ccc(F)cc1,"inconclusive [inhibitor, single point]",–
Cc1ccc(OCCn2cnc3c(N)ncnc32)cc1,–,inactive: -5.48%
O=C([C@H](O)c1ccccc1)N1CCC[C@H]1CO,–,inactive: -20.9%
CCOc1cc(N2CCOCC2)c(OCC)cc1NC(=O)Cc1cccc2ccccc12,"inconclusive [inhibitor, single point]",–
CCCC(CCC)C(=O)Nc1ccc2c(c1)N(C(=O)CN1CCN(C)CC1)c1ccccc1CC2,"inconclusive [inhibitor, single point]",–
CCOc1ccc(Nc2cc(C)c3ccccc3n2)cc1,"inconclusive [inhibitor, single point]",–
COc1ccc(CCNC(=O)CC2Nc3ccccc3NC2=O)cc1 (configuration not stated),"inconclusive [inhibitor, single point]",–
CC(=O)N1c2ccccc2[C@H](C)[C@H]1C,–,inactive: 3.42%
Cc1cccc(NC(=O)c2cc3ccccc3o2)c1,"inconclusive [inhibitor, partial curve, poor fit]",–
C/C(=N\NC(=O)c1nnn(-c2nonc2N)c1-c1ccccc1)c1ccccc1O,active: 1.46 µM,–
COCCCn1c(=N)c(C(=O)NCc2cccnc2)cc2c(=O)n3cc(C)ccc3nc21,–,inactive: 2.89%

SMILES,Potency,"activity change, negative = growth inhibition"
CCOCC(=O)Nc1cccc(-c2nc3cccnc3s2)c1C,–,inactive: -29%
COc1ccc(OC)c(Nc2ncnc3c2nc2n3CCCC2)c1,"inconclusive [inhibitor, partial curve]",–
Cc1cc(C)c(S(=O)(=O)Nc2ccc(N3CCOCC3)cc2)c(C)c1,"inconclusive [inhibitor, partial curve, poor fit]",–
COc1cc(O)c2c(=O)c3c(OC)c(O)ccc3oc2c1,"inconclusive [inhibitor, single point]",–
COc1cc(C(=O)NC(=S)Nc2cccc(-c3cc4ccccc4oc3=O)c2)cc(OC)c1OC,"inconclusive [inhibitor, single point]",–
CCOc1ccc(S(=O)(=O)N2CCC(C(=O)NCc3ccncc3)CC2)cc1,–,inactive: -11.2%
O=C(/C=C/c1ccccc1)NC(=S)Nc1ccccc1C(=O)NC1CCCCC1,"inconclusive [inhibitor, single point]",–
Cc1ccc(S(=O)(=O)N2CCOCC2)cc1NC(=O)COC(=O)CNC(=O)c1ccc(Oc2ccccc2)cc1,"inconclusive [inhibitor, single point]",–
CCCCCNC(=O)c1ccc(NC(=O)CC2SC(N3CCCC3)=NC2=O)cc1 (configuration not stated),–,inactive: -20.7%
CCc1nnc(SCc2ccc(OC)cc2)c2cc3sc(C)cc3n12,–,inactive: -15.5%
COc1ccccc1CNS(=O)(=O)c1ccc2c(c1)NC(=O)CS2,–,inactive: -27.6%
Cc1c(NC(=O)c2cc3ccccc3o2)cccc1-n1cnnn1,"inconclusive [inhibitor, single point]",–
Cc1ccc(NC(=S)NCc2ccccc2)cc1S(=O)(=O)N1CCCCC1,"inconclusive [inhibitor, single point]",–
O=C(CSc1n[nH]c(-c2ccco2)n1)Nc1ccc(Br)cc1,"inconclusive [inhibitor, single point]",–
COc1ccc(/C=C2\SC(=O)N(CCNC(=O)C3=COCCO3)C2=O)cc1,active: 1.3 µM,–
CCOc1ccc(NC(=O)c2nc3nc(C)cc(C(F)F)n3n2)cc1,–,inactive: -19.8%
CC1(C(=O)OCC(=O)Nc2nnc(-c3ccccc3)o2)CC1(Cl)Cl (configuration not stated),"inconclusive [inhibitor, single point]",–
CSCCC1NC2(C(=O)Nc3c(C)cc(Cl)cc32)[C@@H]2C(=O)N(C3CCCC3)C(=O)[C@H]12 (some centres not stated),active: 20.6 µM,–
CCOc1ccccc1CNCCO,–,inactive: 8.88%
COc1ccccc1N(C(=O)c1snc(C(N)=O)c1N)C(C(=O)NCCC(C)C)c1ccco1 (configuration not stated),–,inactive: -28.6%
CN1C(=O)/C(=C\c2ccc(N(C)C)cc2)OC1=S,"inconclusive [inhibitor, single point]",–
CCCc1ccc(OCCNC(=O)c2ccco2)cc1,–,inactive: -25.9%
CC1CCCCN1C(=O)CN1C(=O)CSc2ccc(S(=O)(=O)N3CCOCC3)cc21 (configuration not stated),–,inactive: 13.8%
C/C(=N\N=C(N)N)c1ccc(C)c(C)c1,"inconclusive [inhibitor, single point]",–
